{"source": "PubChem BioAssay AID504332", "about": "(National Center for Advancing Translational Sciences (NCATS), 2011)", "note": "Where “and” joins values, the source holds several entries; their conditions need not be identical. Equal entries are not always repeated. About 31,000 (8.9%) of roughly 350,000 compounds were called active. Inconclusive means that the source gave no clear call. Such entries were picked first, then a sample of the others. Calls come from the whole dose curve; as a rule, active = well fitted inhibition curve with a large enough effect; inconclusive = small, poorly fitted or top-dose-only effect; inactive = no such curve, though single readings can be large or run the other way. Potencies beside an inconclusive call are fits to weak or partial responses and may not hold up. % is set by controls: 0 for no effect and ±100 for the full control effect; potency is the fitted concentration of half-maximal effect; tags give direction and shape of the fitted curve.", "data": [{"target": "Histone-lysine N-methyltransferase EHMT2 (Homo sapiens) (UniProt Q96KQ7)", "sequence (Q96KQ7 whole entry, looked up)": "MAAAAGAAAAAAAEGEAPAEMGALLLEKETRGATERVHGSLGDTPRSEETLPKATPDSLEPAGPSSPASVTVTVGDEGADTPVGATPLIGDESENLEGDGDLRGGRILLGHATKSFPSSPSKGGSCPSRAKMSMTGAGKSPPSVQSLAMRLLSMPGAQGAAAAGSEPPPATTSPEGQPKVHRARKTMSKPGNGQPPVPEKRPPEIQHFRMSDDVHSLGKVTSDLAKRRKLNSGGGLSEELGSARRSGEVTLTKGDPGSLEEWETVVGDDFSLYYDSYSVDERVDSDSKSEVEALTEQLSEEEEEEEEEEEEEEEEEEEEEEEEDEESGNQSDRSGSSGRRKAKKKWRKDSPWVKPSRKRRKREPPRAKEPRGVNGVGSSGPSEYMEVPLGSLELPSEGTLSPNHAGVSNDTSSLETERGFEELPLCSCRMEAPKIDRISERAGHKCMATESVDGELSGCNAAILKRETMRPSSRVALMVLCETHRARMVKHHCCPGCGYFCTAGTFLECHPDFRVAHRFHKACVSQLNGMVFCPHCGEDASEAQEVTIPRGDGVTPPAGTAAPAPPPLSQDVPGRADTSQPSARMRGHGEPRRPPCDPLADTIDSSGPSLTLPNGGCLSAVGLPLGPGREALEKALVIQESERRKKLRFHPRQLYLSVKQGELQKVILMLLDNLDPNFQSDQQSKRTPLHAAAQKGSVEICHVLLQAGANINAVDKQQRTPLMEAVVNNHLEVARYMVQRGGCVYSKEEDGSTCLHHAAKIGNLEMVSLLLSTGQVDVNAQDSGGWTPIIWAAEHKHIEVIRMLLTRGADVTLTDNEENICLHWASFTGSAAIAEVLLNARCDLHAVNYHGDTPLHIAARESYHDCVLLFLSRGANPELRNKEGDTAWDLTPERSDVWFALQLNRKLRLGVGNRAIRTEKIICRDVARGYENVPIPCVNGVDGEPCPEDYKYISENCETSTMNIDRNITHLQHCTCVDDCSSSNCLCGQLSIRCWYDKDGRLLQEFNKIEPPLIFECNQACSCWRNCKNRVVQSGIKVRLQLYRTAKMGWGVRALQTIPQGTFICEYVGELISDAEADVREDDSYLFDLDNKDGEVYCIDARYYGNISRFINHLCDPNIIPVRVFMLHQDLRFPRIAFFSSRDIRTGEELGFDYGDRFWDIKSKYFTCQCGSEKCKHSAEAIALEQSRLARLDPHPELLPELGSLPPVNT", "assay": "qHTS Assay for Inhibitors of Histone Lysine Methyltransferase G9a; note: nearly all actives have a fitted effect of over 75% in size", "conditions": "G9a H3K9 monomethylation, AlphaScreen, 2 h; activity, negative = inhibition: at 59 µM (top of the series) unless noted", "procedure,_shortened": "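Chemiluminescent proximity detection of H3K9 monomethylation, read after 10 min bead incubation in the dark. Reaction: 20 nM G9a, 500 nM biotin-H3K9 peptide, 20 uM SAM cofactor, 2 h, room temperature, following 15 min enzyme-compound preincubation.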", "values": [{"smiles": "Cc1ccccc1N1CCN(C(=O)CN2C(=O)c3ccccc3C2=O)CC1", "Potency": "inconclusive: 1.12 µM [inhibitor, full curve, poor fit]"}, {"smiles": "COc1ccc(C(=O)c2c(O)cc(-c3ccc(OC)cc3)oc2=O)cc1", "Potency": "inconclusive: 0.794 µM [inhibitor, full curve]"}, {"smiles": "O=C(C1CCN(C2CC(=O)N(c3cccc(Cl)c3)C2=O)CC1)N1CCCCCC1", "note": "(stereo not drawn)", "Potency": "active: 10 µM"}, {"smiles": "Cc1nnc(SCC2=C(C(=O)O)N3C(=O)C(NC(=O)c4cccc(F)c4F)C3SC2)s1", "note": "(stereo not drawn)", "Potency": "inconclusive: 39.8 µM [inhibitor, partial curve, poor fit]"}, {"smiles": "COc1ccc(C(=O)c2ccc(Cl)cc2)cc1", "Potency": "inactive"}, {"smiles": "O=C(CSc1ccc2ccccc2c1)N1CCN(c2ccc(O)cc2)CC1", "Potency": "active: 15.8 µM"}, {"smiles": "CCCCOc1ccc(Cc2n[nH]c(=S)n2N)cc1", "Potency": "inconclusive: 1.58 µM [inhibitor, full curve, poor fit]"}, {"smiles": "O=C1c2ccccc2NC(c2cccc(O)c2)N1NS(=O)(=O)c1ccccc1", "note": "(stereo not drawn)", "Potency": "inactive"}, {"smiles": "CCN(CC)C(=O)Cn1cnc2sc(C(=O)N3CCN(c4ccc(OC)cc4)CC3)c(C)c2c1=O", "Potency": "inconclusive: 25.1 µM [inhibitor, single point]"}, {"smiles": "COc1ccc(Cn2c(C(=O)O)c(CNCCc3ccco3)c3ccc(OC)cc32)cc1", "Potency": "inconclusive: 25.1 µM [inhibitor, single point]"}, {"smiles": "O=C1CS(=O)(=O)C2(C(=O)N(Cc3ccccc3Cl)c3ccccc32)N1c1ccc(F)cc1", "note": "(stereo not drawn)", "Potency": "inconclusive: 6.31 µM [inhibitor, partial curve, poor fit]"}, {"smiles": "O=C(Oc1ccc(C(=S)N2CCOCC2)cc1)c1ccccc1", "Potency": "inactive"}, {"smiles": "CC(C)(C)c1ccc(/C=C/C(=O)Nc2ccc(S(N)(=O)=O)cc2)cc1", "Potency": "inconclusive: 20 µM [inhibitor, partial curve, poor fit]"}, {"smiles": "CCC(C)(C)NC(=O)C1CCN(S(=O)(=O)c2ccc3c(c2)CCCN3C(C)=O)CC1", "Potency": "inactive"}, {"smiles": "Cc1cc(/C=C(\\C#N)C(=O)O)c(C)n1-c1ccc(Br)cc1", "Potency": "active: 70.8 µM"}, {"smiles": "C=Cc1ccc(Cn2c(C(=O)O)c(CNCc3ccc(F)cc3)c3ccc(C)cc32)cc1", "Potency": "inconclusive: 3.98 µM [inhibitor, partial curve, poor fit]"}, {"smiles": "CCOC(=O)C1CCN(C(C)=C2C(=O)c3ccccc3C2=O)CC1", "Potency": "inconclusive: 50.1 µM [inhibitor, partial curve, poor fit]"}, {"smiles": "CCCn1c(SCC(=O)Nc2ccccc2-c2ccccc2)nnc1-c1ccoc1C", "Potency": "inconclusive: 70.8 µM [inhibitor, single point]"}, {"smiles": "Clc1cncc(Cl)c1NNc1c2ccccc2nc2ccccc12", "Potency": "active: 1.26 µM"}, {"smiles": "COc1cccc(CN2CCN(C(=O)c3cccc4ccccc34)CC2)c1OC", "Potency": "inconclusive: 1.78 µM [inhibitor, partial curve, poor fit]"}, {"smiles": "COC(=O)c1cn(CC(=O)NCc2cccs2)c2ccccc12", "Potency": "inactive"}, {"smiles": "O=S(=O)(Nc1ccc2c(c1)nc1n2CCN(Cc2ccccc2)C1)c1ccc(F)cc1", "Potency": "inconclusive: 11.2 µM [inhibitor, partial curve, poor fit]"}, {"smiles": "O=C(NNC(=O)c1ccc(Br)s1)c1csc(N2CCOCC2)n1", "Potency": "inconclusive: 3.55 µM [inhibitor, partial curve, poor fit]"}, {"smiles": "CCOc1ccc(-c2nnc(N)s2)cc1", "Potency": "inactive"}, {"smiles": "N[C@@H](CCC(=O)N[C@H](CSN=O)C(=O)NCC(=O)O)C(=O)O", "Potency": "active: 10 µM and active: 8.91 µM"}, {"smiles": "COC(=O)c1nn(-c2ccccc2)c(Cl)c1/C=N/OC(=O)c1ccc(Cl)c(Cl)c1", "Potency": "inconclusive: 79.4 µM [inhibitor, partial curve, poor fit]"}, {"smiles": "Cc1ccc2c(c1)N(C(=O)c1ccco1)C(C)(C)c1ssc(=S)c1-2", "Potency": "active: 11.2 µM"}, {"smiles": "Cc1noc(C)c1COc1ccccc1C(=O)Nc1cccc(S(=O)(=O)N(C)C)c1", "Potency": "inactive"}, {"smiles": "Cc1ccc(S(=O)(=O)c2nc(-c3ccccc3)oc2SCC(=O)NC2CCCCC2)cc1", "Potency": "inactive"}, {"smiles": "O=C(O)CCN1C(=O)/C(=C/c2ccc(-c3nc4ccccc4s3)o2)SC1=S", "Potency": "inconclusive: 10 µM [inhibitor, partial curve, poor fit]"}, {"smiles": "N#Cc1c(/N=C/c2ccccc2)oc(-c2ccccc2)c1-c1ccccc1", "Potency": "inconclusive: 28.2 µM [inhibitor, single point]"}, {"smiles": "COc1cccc(C2Nc3ccccc3-c3nnc(SCc4ccccc4)nc3O2)c1OC", "note": "(stereo not drawn)", "Potency": "inactive"}, {"smiles": "CSc1ccc(CN(C)C(=O)C23CC4CC(CC(Cl)(C4)C2)C3)cc1", "Potency": "inactive"}, {"smiles": "Cc1ccc(C(=O)NC(=S)Nc2ccccc2C(F)(F)F)cc1C", "activity, negative = inhibition": "inactive: 34.9% [at 0.501 µM]"}, {"smiles": "Cc1ccc(S(=O)(=O)NCC(=O)N(CC(=O)NCC2CCCO2)Cc2ccc(Cl)cc2)cc1", "note": "(stereo not drawn)", "Potency": "inactive"}, {"smiles": "O=C1c2ccccc2C(=O)N1/N=C/c1ccc(O)c(O)c1", "Potency": "active: 11.2 µM"}, {"smiles": "Clc1ccc2[nH]c3c(c2c1)CCc1cn[nH]c1-3", "Potency": "active: 35.5 µM"}, {"smiles": "CCS(=O)(=O)Nc1ccc(C2=NN(C(=O)c3ccco3)C(c3ccc(C)cc3)C2)cc1", "note": "(stereo not drawn)", "Potency": "inconclusive: 2.82 µM [inhibitor, partial curve, poor fit]"}, {"smiles": "N#C/C(=C\\c1ccncc1)C(N)=O", "Potency": "inactive"}, {"smiles": "O=S(=O)(Nc1cccc(CCc2ccccn2)c1)c1ccc2ccccc2c1", "Potency": "inactive"}, {"smiles": "O=C(NC1CC(=O)N(c2ccc(F)cc2)C1)N1CCN(C(=O)c2ccco2)CC1", "note": "(stereo not drawn)", "activity, negative = inhibition": "inactive: 16.2% [at 0.501 µM]"}, {"smiles": "CCOc1ccc(NC(=O)Cn2c(=O)n(Cc3nc(-c4ccccc4)no3)c(=O)c3ccccc32)cc1", "Potency": "inactive"}, {"smiles": "COc1ccc(S(=O)(=O)N2CCOC23CCN(S(=O)(=O)c2cc(C)ccc2OC)CC3)cc1", "Potency": "inconclusive: 12.6 µM [inhibitor, partial curve]"}, {"smiles": "Cn1c(-n2cccc2)c(-c2c(-c3ccc(F)cc3)[nH]c3c2c(=O)[nH]c(=O)n3C)c(=O)[nH]c1=O", "Potency": "inactive"}, {"smiles": "Cc1ccc2nc(-c3ccc(NC(=O)COC(=O)c4cncc(Br)c4)cc3)sc2c1", "Potency": "active: 25.1 µM"}, {"smiles": "COCCNc1ccc(-c2nc(-c3cccc(C)c3)no2)cc1[N+](=O)[O-]", "Potency": "inactive"}, {"smiles": "O=c1[nH]c(=O)n(C2CC(O)C(CO)O2)cc1C(F)(F)F", "note": "(stereo not drawn)", "activity, negative = inhibition": "inactive: -23.9% [at 2.33 µM]"}, {"smiles": "COc1cc(OC)c(NC(=O)c2ccc3c(Cl)c4c(nc3c2)CCCC4)cc1Cl", "Potency": "inactive"}, {"smiles": "O=S(=O)(CC(CN1CCCC1)N1CCCC1)c1ccc2ccccc2c1", "note": "(stereo not drawn)", "Potency": "inconclusive: 39.8 µM [inhibitor, single point]"}, {"smiles": "COc1ccc(C)cc1NC(=O)C1CCCN1S(=O)(=O)c1ccccc1F", "note": "(stereo not drawn)", "Potency": "active: 8.91 µM"}, {"smiles": "COc1ccc(OC)c(N2C(=NC(=O)C3CCCCC3)SC3CS(=O)(=O)CC32)c1", "note": "(stereo not drawn)", "Potency": "inactive"}, {"smiles": "Cc1ccccc1CS(=O)(=O)c1nnc([C@H](Cc2ccccc2)NC(=O)OC(C)(C)C)o1", "Potency": "active: 39.8 µM"}, {"smiles": "Cc1ccc(NC(=O)CSc2cn[nH]n2)cc1", "Potency": "active: 50.1 µM"}, {"smiles": "COc1ccc(-n2c(Cc3cccn3C)nnc2SCC(=O)Nc2cc(Cl)ccc2OC)cc1", "Potency": "active: 39.8 µM"}, {"smiles": "CC(C)(C)c1cc[n+](/C(C(=S)NC2CC2)=C(/[O-])c2ccc(Cl)s2)cc1", "Potency": "active: 10 µM"}, {"smiles": "O=C(Cn1nnc(-c2ccccc2)n1)NNC(=O)c1ccco1", "Potency": "inactive"}, {"smiles": "CC(=O)N1[C@H](C)C=C[C@]1(Cc1ccccc1)C(=O)O", "Potency": "inconclusive: 89.1 µM [inhibitor, single point]"}, {"smiles": "COc1ccc(/C=C/C(=O)NC(=S)Nc2ccc(S(=O)(=O)Nc3nccnc3OC)cc2)cc1", "Potency": "inconclusive: 2 µM [inhibitor, partial curve, poor fit]"}, {"smiles": "N#CCc1nn2c3c(cnc2c1C#N)C(=O)CCC3", "Potency": "active: 44.7 µM"}, {"smiles": "Cc1cc(O)c(C=O)c2c1C(=O)Oc1c(C)c(O)c3c(c1O2)C(O)OC3=O", "note": "(stereo not drawn)", "activity, negative = inhibition": "inconclusive: -54.7% [inhibitor] [at 2.33 µM]"}, {"smiles": "CC(=O)N1CCN(c2ccc(NC(=O)C(C)Oc3ccc(Cl)cc3Cl)cc2)CC1", "note": "(stereo not drawn)", "Potency": "inconclusive: 79.4 µM [inhibitor, single point]"}, {"smiles": "COc1ccc(-n2ncc3c2ncn2nc(-c4ccc(Cl)cc4Cl)nc32)cc1", "Potency": "inactive"}, {"smiles": "Cc1cccc(C)c1Nc1nnc(SCC(=O)NC(=O)c2cccn2C)s1", "Potency": "active: 20 µM"}, {"smiles": "CCNC(=S)N1CCN(C(=O)c2ccco2)CC1", "Potency": "inactive"}, {"smiles": "CN1c2ccccc2C(O)=C(C(=S)Nc2ccccc2)S1(=O)=O", "activity, negative = inhibition": "inconclusive: -76.7% [inhibitor]"}, {"smiles": "Cc1ccc(C2C(/C=C3/SC(=S)NC3=O)=C(c3cccs3)Oc3ccccc32)cc1", "note": "(stereo not drawn)", "Potency": "active: 31.6 µM"}, {"smiles": "Cc1ccc(C(=O)N2CCOCC2)cc1[N+](=O)[O-]", "Potency": "inconclusive: 6.31 µM [inhibitor, partial curve, poor fit]"}, {"smiles": "O=C1/C(=C/c2ccncc2)N=C2CCCCCN12", "activity, negative = inhibition": "inconclusive: -65.7% [inhibitor]"}, {"smiles": "NS(=O)(=O)c1cccc(NC(=O)COc2ncnc3c2cnn3-c2ccccc2)c1", "Potency": "inconclusive: 79.4 µM [inhibitor, partial curve, poor fit]"}, {"smiles": "CC(C)c1nnc(NC(=O)c2nc(S(=O)(=O)Cc3ccccc3)ncc2Cl)s1", "Potency": "active: 7.08 µM and active: 8.91 µM"}, {"smiles": "CCOc1ccc(CCNC(=O)Cn2c(=O)oc3ccccc32)cc1OCC", "Potency": "inconclusive: 2.82 µM [inhibitor, partial curve, poor fit]"}, {"smiles": "O=C(COC(=O)c1ccncc1)NCCCc1ccccc1", "Potency": "inconclusive: 31.6 µM [inhibitor, partial curve, poor fit]"}, {"smiles": "Cc1nc2ccc(-c3ccccc3)cc2o1", "Potency": "inconclusive: 2.82 µM [inhibitor, full curve, poor fit]"}]}]}
